Results on 49 compounds are retold here after PubChem BioAssay AID1159614 (National Center for Advancing Translational Sciences (NCATS), 2016).

Each structure is given as a SMILES string. Among all 45,000 compounds or so, about 65 (0.1%) were called active. Calls follow the shape of the dose curve; as a rule, active = well fitted activation curve with a large enough effect; inconclusive = small, poorly fitted or top-dose-only effect; inactive = no such curve, though single readings can be large or run the other way. The list shows a part of the results.

This assay addresses Galactocerebrosidase (Homo sapiens) (UniProt P54803). As to the kind of experiment: A Novel Cell-Based Assay to Identify Small Molecules for B -Galactocerebrosidase. Also: 0% is about no effect; nearly all actives have a fitted effect of over 65% in size. The following applies: 145M-Twi-hGALC-G270D cells, HMU-beta-Gal fluorescence, 48 h; series mostly up to 57.5 µM; activation: at the top concentration. In a few lines: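 qHTS, 1536-well; 145M-Twi-hGALC-G270D cells (WT line also made) in DMEM/F12 + 10% FBS; compound incubation on live cells; HMU-β-gal 0.1 mM final, pH 5.2, NaTC; carbonate stop; fluorescence increase = enhanced residual activity.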
Chain of UniProt P54803 (P54803 whole entry, looked up): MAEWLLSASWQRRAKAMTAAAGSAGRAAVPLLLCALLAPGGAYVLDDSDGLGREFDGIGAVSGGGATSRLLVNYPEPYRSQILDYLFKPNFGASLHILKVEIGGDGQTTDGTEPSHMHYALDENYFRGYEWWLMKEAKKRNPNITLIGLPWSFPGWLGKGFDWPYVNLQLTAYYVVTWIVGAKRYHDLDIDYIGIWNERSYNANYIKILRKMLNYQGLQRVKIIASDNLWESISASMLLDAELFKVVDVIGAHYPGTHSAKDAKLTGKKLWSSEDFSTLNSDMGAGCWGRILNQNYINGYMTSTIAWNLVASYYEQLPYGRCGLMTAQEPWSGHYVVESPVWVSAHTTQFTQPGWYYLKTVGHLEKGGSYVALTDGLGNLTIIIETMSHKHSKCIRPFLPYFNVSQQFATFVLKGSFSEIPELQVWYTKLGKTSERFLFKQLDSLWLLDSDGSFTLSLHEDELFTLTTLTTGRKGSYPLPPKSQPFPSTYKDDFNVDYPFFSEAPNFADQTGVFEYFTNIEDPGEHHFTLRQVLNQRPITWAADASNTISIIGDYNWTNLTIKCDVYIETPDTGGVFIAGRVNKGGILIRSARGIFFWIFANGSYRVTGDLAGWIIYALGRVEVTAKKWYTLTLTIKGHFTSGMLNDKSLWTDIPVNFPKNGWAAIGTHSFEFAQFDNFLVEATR
In the case of `CC1Cn2cc(C(=O)Nc3cccc(C(F)(F)F)c3)c(=O)c3c(Cl)ccc(c32)O1` (centres undefined), the “activation” value is inactive: -8.17%.
As for `CCOC(=O)c1c(-c2ccc(OC)cc2)oc2ccc(OCc3ccc(C(=O)OC)cc3)cc12`, the figure is inactive: -11.1%; as for `CCNc1c(NC(=O)c2cc(OCC)c(OCC)c(OCC)c2)c(=O)oc2ccccc12`, inactive: -16.4%; as for `CCN1CCN(CCCNC(=O)c2ccc3c(c2)sc2nc(-c4ccc(OC)cc4)cn23)CC1`, inactive: 0.915%.
In the case of `COc1cccc(CNC(=O)CCn2cccn2)c1`, the “activation” value was inactive: -10.3%.
Consider `CC(NC(=O)C(=O)Nc1c2c(nn1-c1ccc(F)cc1)CSC2)c1ccccc1` (centres undefined), for which the “activation” value was inactive: -10.4%.
As for `CCC(=O)N1CCc2cc(Br)cc(S(=O)(=O)NCCc3ccccc3)c21`, the “activation” value was inactive: -10.5%.
Take `CCOC(=O)c1c(NC(=O)COc2ccc(F)cc2)sc2c1CCC(C)C2` (centres undefined): the “activation” value is inactive: -43%.
Consider `O=C(NCCCN1CCN(c2ccccc2F)CC1)c1nnc(Cc2ccc(Cl)cc2Cl)o1`, for which the “activation” value is inactive: -24.8%.
For the compound `CCCCC/C=C\C/C=C\CCCCCCCC(=O)NC(C)c1ccccc1` (centres undefined), the “activation” value was inactive: -30.9%.
With `NC(=O)C1(N2CCCCC2)CCN(CCCN2c3ccccc3CCc3ccc(Cl)cc32)CC1`, the “activation” value is inactive: -6.62%.
For `Cc1cc(C)c(Cn2c(C(O)c3ccccc3)nc3ccccc32)c(C)c1` (centres undefined), the “activation” value was inactive: -13.5%.
With `COc1cccc(CNC(=O)CCNS(=O)(=O)c2ccc3c(c2)oc(=O)n3C)c1`, the “activation” value was inactive: -9.04%.
Turning to `O=C(CSc1nc2ccccc2n1Cc1ccccc1Cl)NCc1ccccc1`, the “activation” value was inactive: -17%.
As for `CC(C)(C)C(=O)Nc1cccc(C(=O)OCc2cc(=O)n3nc(C4CCCCC4)sc3n2)c1`, the figure is inactive: -19.5%; as for `N#C/C(=C\c1ccc(-c2cc(Cl)ccc2Cl)o1)C(=O)Nc1ccccc1C(=O)O`, inactive: -13.4%; as for `CCCCN(C)CCNC(=O)c1nn(-c2ccc(OC)cc2)c(=O)c2c1c1ccccc1n2C`, inactive: -4.84%.
As for `CCOC(=O)c1[nH]cnc1C(=O)Nc1ccc(F)cc1`, the “activation” value was inactive: -8.7%.
Turning to `COc1ccccc1OCC(O)CN1CCN(CC(=O)Nc2c(C)cccc2C)CC1` (centres undefined), the “activation” value is inactive: -18.1%.
With `Cc1ccn2c(=O)c(C(=O)NCc3ccccc3Cl)c(O)nc2c1`, the “activation” value is inactive: -8.98%.
As to `COc1cc(OC)c(NC(=O)c2c3c(nn2C)-c2ccccc2SC3)cc1Cl`, the “activation” value is inactive: -10.3%.
Take `CCc1ccccc1Nc1nn2c(=O)c3ccc(C(=O)NC4CCCCC4)cc3nc2s1`: the “activation” value was inactive: 8.19%.
Turning to `CC1(C(=O)Nc2ncc(Cc3ccc(Br)cc3)s2)Cc2ccccc2C(=O)O1` (centres undefined), the “activation” value is inactive: -23%.
As to `COc1cccc2c1Oc1ncccc1N(c1ccc(C(=O)NCc3cccc(C)c3)s1)C2`, the “activation” value is inactive: -16.7%.
For `Cc1ccc(N2CC(NC(=O)C3CCCCC3)CC2=O)cc1C` (centres undefined), the “activation” value is inactive: -8.47%.
As for `COc1cccc(C(=O)Nc2ccc(NC(=O)c3ccc(C(C)(C)C)cc3)cc2)c1`, the figure is inactive: 3.07%.
Then `COC(=O)C(CCSC)NC(=O)c1cc2c(n(-c3ccc(OC)cc3)c1=O)CC(C)(C)CC2=O` (centres undefined), with inactive: -16.3%.
As to `O=C(Nc1cc(Cl)cc(Cl)c1)c1ccc(F)c(S(=O)(=O)NCc2ccccc2Cl)c1`, the “activation” value was inactive: -13.7%.
Consider `O=C(Nc1cccc2c(=O)cc(-c3nn[nH]n3)oc12)c1ccc(OCCCCc2ccccc2)cc1`, for which the “activation” value is inactive: -4.8%.
Turning to `COc1cc(OC)c(Nc2c3c(nc4nc(-c5cccs5)nn24)CCCC3)cc1Cl`, the “activation” value is inactive: -3.76%.
With `Cc1ccccc1-c1nnc(SCC(=O)N2CCCCC2)o1`, the “activation” value was inactive: -4.93%.
As to `CCOc1ccc(NS(=O)(=O)c2ccc3nc(-c4ccccc4)[nH]c3c2)cc1`, the “activation” value is inactive: -7.51%.
Take `CCN(c1ccccc1)S(=O)(=O)c1nnc(NC(=O)c2ccco2)s1`: the “activation” value was inactive: 2.81%.
Take `CCC(C)NC(=O)c1ccc2nc(Cc3ccccc3)oc2c1` (centres undefined): the “activation” value is inactive: -10.8%.
For `COc1ccc(-c2nc3scc(CCNC(=O)Cc4ccc(F)cc4)n3n2)cc1`, the “activation” value is inactive: -9.97%.
As for `Cc1ccc(-n2ncc(C(=O)Nc3c(Cl)cccc3Cl)c2C2CCNCC2)cc1`, the “activation” value was inactive: 3.27%.
As for `Cc1nn(-c2ccccc2)c2sc(C(=O)Nc3cccc(O)c3)cc12`, the figure is inactive: -10.3%; as for `Cn1c(=O)cc(OCC(=O)NCc2ccc(F)cc2Cl)c2ccccc21`, inactive: 4.34%; as for `COc1ccc(CCNC(=O)CCCn2nc(C)c3sc4ccccc4c3c2=O)cc1OC`, inactive: -3.34%.
Consider `Cc1ccc(-c2nc(CS(=O)(=O)CC(=O)Nc3cc(C)ccc3C)c(C)o2)cc1`, for which the “activation” value is inactive: -9.82%.
With `COc1cc(CN(C(=O)COc2ccc(Cl)c(C)c2)c2ccccn2)cc(OC)c1OC`, the “activation” value is inactive: -40.3%.
For `Cc1csc2nc(COc3ccccc3NC(=O)c3ccccc3Cl)cc(=O)n12`, the “activation” value was inactive: -9.02%.
As for `CSc1ccc(CCNC(=O)c2ccc(CS(=O)Cc3ccc(Cl)cc3)o2)cc1` (centres undefined), the figure is inactive: -12.4%; as for `O=C(COCc1cc(-c2ccc3c(c2)OCO3)on1)NCc1ccc(F)cc1`, inactive: -1.04%; as for `Cc1ccc2nc(-c3ccc(Cl)c(NC(=O)c4ccc(Br)o4)c3)oc2c1`, inactive: -1.91%.
Take `CSc1nc2c([nH]c3ccccc32)c(=O)n1-c1ccc(C)cc1`: the “activation” value is inactive: -12.1%.
Take `O=C(Nc1ccccc1Cl)c1cc2c(-c3ccccc3)nn(-c3ccccc3)c2s1`: the “activation” value was inactive: -10.2%.
`Cc1cccc(-c2nc(CSCC(=O)N3CCN(c4cccc(C)c4C)CC3)c(C)o2)c1`: the “activation” value was inactive: -23.1%.
`CCc1ccc2c(c1)NC(c1cccnc1)=NC(c1ccc(C(C)(C)C)cc1)=N2`: the “activation” value was inactive: -35.9%.
